ChEMBL document CHEMBL4888484, “Replenishing the malaria drug discovery pipeline: Screening and hit evaluation of the MMV Hit Generation Library 1 (HGL1) against asexual blood stage Plasmodium falciparum ,using a nano luciferase reporter read-out” (2022)
Screen size: about 150,000 compounds; about 540 (0.36%) showed an effect of 50% or more. This is one part of the list.

test system: Plasmodium falciparum; test: Primary screen in NF54 nanoGlo assay, in single point, at 2uM, 72h; a lower Z score goes with more inhibition; assay type: functional, Erythrocyte; details: timepoint 72 hour

Compound | % Inhibition | Z score
CS(=O)(=O)N[C@H](c1nccs1)C1CC1 | 31% | -3.49
CCN1CCC(NC(=O)N(Cc2ccc(-c3ccccc3C)s2)C(C)C)CC1 | -7% | 1.01
CC1(C)CN(Cc2ccc(C#N)cc2Br)CC[S@@+]1[O-] | -4% | 0.36
CCN1CCN(C(=O)CCN(CC(C)C)c2nc(-c3ccc(F)cc3)nc3cc(Cl)ccc23)CC1 | 7% | -0.81
CC(=O)c1cccc(NC(=O)Cn2c(C)cc(=O)n3nc(-c4ccccc4)nc23)c1 | -4% | 0.49
Cc1nn(C)cc1-c1nn(Cc2ccc(F)cc2Cl)c(-c2cn(C)nc2C)c1Cl | 34% | -3.87
CN(C)C(=O)Nc1cccc(CNC(=O)c2cn(C)nc2-c2cnn(C)c2)c1 | 8% | -1.1
O=C(CC1CCCC1)NCc1ccc2c(c1)CCN2C(=O)c1ccccc1 | 6% | -1.09
CN(CC(=O)N1C[C@@H]2CC[C@H]1CN(C(=O)N(C)C)C2)Cc1ccccc1F | -14% | 1.5
Cc1ccn2c(NC(=O)CC3CC4CCC3O4)nnc2c1 (stereo unspecified) | 6% | -1
O=C1CCCCN1CC(=O)N1CCC[C@H](CCc2ccc(F)c(F)c2)C1 | -19% | 2.64
COc1ccc(N2CCN(C(=O)Cn3cccc3-c3nc(-c4ccc5c(c4)OCO5)no3)CC2)cc1 | -6% | 0.82
CCCN1CCC[C@H]1C(=O)NS(=O)(=O)c1ccc2c(c1)CCCC2 | 6% | -0.58
Cc1ccn(CCC(=O)Nc2ccc(C)c(N(C)C)c2)n1 | -5% | 0.93
O=C(NC1CCCCCCC1)c1cccnc1O | -8% | 0.75
Cc1noc(C)c1S(=O)(=O)N(C)Cc1ncc(C(C)(C)C)o1 | -3% | 0.38
Cc1ccc(Nc2c(C(=O)NCc3ccc(F)cc3)cnc3c2c(C)nn3C)cc1 | 36% | -4.03
Cc1ccc([C@@H](CC(=O)N2CCN(c3cccc(C(F)(F)F)c3)CC2)c2c[nH]c3ccccc23)cc1 | 2% | -0.2
O=C(NCc1ccc(F)cc1)Nc1nc2c(s1)C(=O)NCCC2 | -10% | 1.94
CCc1ccc([C@H]2NCCc3[nH]cnc32)nc1 | 55% | -5.21
C=CCNCc1cc(Cl)ccc1OC | -9% | 1.42
CC(C)Cn1cncc1CN(C)Cc1ccccn1 | -7% | 1.26
CC(NC(=O)c1ccoc1)C1CC2CCC1C2 (stereo unspecified) | -1% | 0.16
Cc1ccc(CNC(=O)N[C@@H](C)Cc2ccc(C)s2)cn1 | -8% | 1.57
Cc1nn(C)c(C)c1CNC(=O)[C@H]1CCCN(c2nnc3ccccn23)C1 | -8% | 0.9
CCn1c(=O)c(C(=O)CN2CCN(S(=O)(=O)c3ccccc3)CC2)c(N)n(Cc2ccccc2)c1=O | -11% | 2.13
CC(=O)c1ccc(OCc2nc(-c3ccoc3)no2)c(C)c1 | -10% | 1.29

Compound | % Inhibition | Z score
Cc1nc(C)c(-c2cc(C)c3c(C)nc(C)nc3n2)c(N)n1 | -9% | 1.21
Cc1cnn(CCN[C@@H](C)c2nc(C3CC3)no2)c1 | -6% | 0.93
O=C(N[C@H]1CCN(C2CCCCC2)C1=O)c1cc2ccccc2[nH]1 | 4% | -0.56
C[C@]1(c2ccc(Cl)cc2)CC(=O)N(CC(=O)N2CCCCCC2)C1=O | 3% | -0.38
Cc1cc(-n2nc(C)nc2C2(Cn3ccnc3)CC2)ccn1 | -8% | 0.99
Cc1ncccc1CNC(=O)Nc1ccc(C2CCC2)cc1 | 3% | -0.54
Cc1ncsc1C(=O)[C@H](C#N)c1nc2cc(F)ccc2s1 | -1% | 0.18
Cc1nonc1CC(=O)N[C@@H](C)c1cc(Cl)cc(Cl)c1F | 1% | -0.13
CCCCN1CCc2ccc(NC(=O)N(C)Cc3cc(C)on3)cc21 | -5% | 0.74
CCCOC1(CNC(=O)c2ccc3nnn(C)c3c2)CCCCC1 | -2% | 0.17
CN(C)c1cccc(C(=O)Nc2cc(-c3ccsc3)no2)c1 | -9% | 1.58
CC(C)CCNC(=O)C[C@H](c1cccc(OCc2ccccc2)c1)c1c[nH]c2ccccc12 | -15% | 1.66
O=C(CC1CCNCC1F)Nc1nccn1Cc1ccc(Br)cc1 (stereo unspecified) | 3% | -0.44
O=C(Nc1cccc(-c2nc3ccccc3s2)c1)c1cc[n+]([O-])cc1 | -15% | 1.36
CN(C)S(=O)(=O)c1ccc(C(=O)NC[C@@]2(O)C=CCCC2)cc1 | -9% | 1.6
Nc1nc2c(c(-c3cccnc3)n1)CN(C(=O)c1cccc(Cl)c1)C2 | -11% | 1.03
FC(F)(F)c1ccccc1-c1c[nH]c([C@@H]2CCCN2)n1 | -1% | 0.16
COc1ccccc1N1CCN(Cc2nc(C(=O)NCc3cccnc3)co2)CC1 | 6% | -0.52
CCn1c(-c2cccnc2)nc2cc(NC(=O)COC)cc(C(=O)NCCC3=CCCCC3)c21 | -12% | 1.5
COc1ccc(Cl)cc1C(=O)N1CC(c2nc(-c3cccc(C(F)(F)F)c3)no2)C1 | -7% | 1.32
CC[C@H]1CN(S(=O)(=O)CCc2ccc3c(c2)CCO3)CCN1CC(F)F | 1% | -0.12
CN(C)CC(C)(C)CNC(=O)Nc1ccc(Cl)c2ncccc12 | -18% | 1.63
CCC(CC)C(=O)N1CCC(c2nnc(C(=O)Nc3cccc(Cl)c3)s2)CC1 | 7% | -0.65
Oc1cc(CNCc2noc(-c3ccco3)n2)nc2c(F)cccc12 | -7% | 1.3
O=C(NC1CCOC(c2ccccc2)C1)NC1COc2ccccc21 (stereo unspecified) | -14% | 2.55
Cn1cc(C(=O)N2CCC(C)(C#N)CC2)ccc1=O | -25% | 2.9
